Measurements reported in the supplement of paper PMC3334620.
The full ranking holds about 33,000 sequences; the median of “E-score (-0.5 to 0.5)” is about -0.035, and the highest 2% start at about 0.35. The list shows a part of the results.

target: T1, Pdr3 (UniProt P33200); assay: PBM E-score (8-mer binding enrichment) (E-score (-0.5 to 0.5)); higher = stronger / more preferred TF binding; most listed sequences are background and not binding sites; conditions: protein concentration: 200 nM; construct: GST-full length
T1 sequence: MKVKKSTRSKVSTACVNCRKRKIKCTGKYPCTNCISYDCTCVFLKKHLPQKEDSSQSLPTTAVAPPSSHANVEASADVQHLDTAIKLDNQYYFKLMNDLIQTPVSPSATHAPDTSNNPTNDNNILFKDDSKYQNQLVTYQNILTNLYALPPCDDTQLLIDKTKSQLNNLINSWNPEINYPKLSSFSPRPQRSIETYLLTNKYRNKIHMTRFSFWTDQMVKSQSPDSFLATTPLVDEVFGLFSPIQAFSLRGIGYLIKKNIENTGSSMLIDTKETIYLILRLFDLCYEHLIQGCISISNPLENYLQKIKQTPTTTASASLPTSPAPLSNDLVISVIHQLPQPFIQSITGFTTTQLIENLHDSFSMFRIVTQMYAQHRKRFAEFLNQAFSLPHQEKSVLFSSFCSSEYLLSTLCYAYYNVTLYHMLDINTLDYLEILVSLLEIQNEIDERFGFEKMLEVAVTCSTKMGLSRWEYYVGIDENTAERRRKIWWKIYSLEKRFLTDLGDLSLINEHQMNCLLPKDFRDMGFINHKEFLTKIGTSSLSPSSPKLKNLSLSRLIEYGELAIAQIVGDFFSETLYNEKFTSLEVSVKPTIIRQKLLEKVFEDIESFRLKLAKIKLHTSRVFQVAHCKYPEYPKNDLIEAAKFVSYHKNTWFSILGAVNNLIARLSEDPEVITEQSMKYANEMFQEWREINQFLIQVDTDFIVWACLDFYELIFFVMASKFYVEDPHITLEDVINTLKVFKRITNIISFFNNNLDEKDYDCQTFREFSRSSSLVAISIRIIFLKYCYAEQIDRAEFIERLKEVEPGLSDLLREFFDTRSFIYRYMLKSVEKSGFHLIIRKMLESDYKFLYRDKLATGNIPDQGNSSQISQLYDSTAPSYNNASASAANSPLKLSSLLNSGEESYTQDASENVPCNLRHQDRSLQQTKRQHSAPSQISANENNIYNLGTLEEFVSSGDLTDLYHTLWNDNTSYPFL
Procedure, shortened: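 Detection of bound protein used fluorescent anti-GST, with scans normalised by masliner. The proteins were GST-tagged yeast transcription factors applied at about 100-200 nM to universal all-10-mer Agilent arrays made double-stranded by primer extension. Each ungapped eight-base word, pooled with its reverse complement, was scored with an E-score from the Universal PBM Analysis Suite.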

Sequence	PBM E-score
TCTGAAGA	-0.234
TCTCTGCA	-0.0846
CCACATCG	-0.0316
CGGGGATA	0.33
AAGTTGTA	-0.0735
AGACATCA	-0.0175
CAGGGTTA	-0.235
ACTGTCAC	-0.115
AGGTGTTA	-0.336
CGACGTCC	0.143
ACAATAAA	-0.0463
CCCGTTAA	0.17
GCTCGAGA	-0.203
ACGACGCT	-0.14
ATAGCTAC	-0.0621
AACATTGG	-0.171
GCCGTTGA	0.0969
GCTTATGA	-0.0958
GTTGTACA	-0.0334
GGCCATGA	0.0323
ATATAGAC	-0.0108
CACCGTAA	-0.0554
CCCCAGAC	-0.23
ACGCAACG	0.133
AAAACTCG	0.027

Sequence	PBM E-score
TCACTGAA	0.0661
CATCTCTC	0.182
AGTCGTTC	-0.167
AGATGGAT	-0.0516
ACTCAAAA	-0.0874
CACCTCGA	0.193
CCCAGGTC	-0.21
ATTCTTAC	-0.0923
CCTGCGCC	-0.00774
ATTAGAGG	-0.0767
CTGCAATC	0.0967
TAAGATGA	-0.272
ATCCGTAG	0.231
GACAATAC	0.165
CCTCGACA	-0.104
CTGTCAGA	-0.0126
CTACAGTA	-0.207
GGAAATAC	0.163
AGCGTTAC	-0.243
ATGGAGAA	0.0258
AGTCCGAC	0.0612
AGAACGGA	0.316
AAGAAGCA	0.0408
GCGCTACC	-0.174
TTATCAAA	-0.0369

Sequence	PBM E-score
TATGAACA	-0.127
GCGAGGCA	0.168
AAGACGCT	-0.218
ATTTAATA	0.182
AAATGGAA	0.0065
GTGAGGTA	-0.0646
CAGCCACC	0.0383
AGTAATAT	0.0891
CTCAGACC	-0.0888
CACAAAAG	0.0197
CAGGGCTC	-0.249
CGAGAAAA	-0.115
CTAATCGC	0.101
GGTGGGTA	0.033
CGCGACCA	0.244
CACGATTA	0.0766
ATCCTTCG	0.111
GATGGCAC	-0.0693
AGTCTGAC	-0.0823
AAAACTGA	-0.123
ATTGCGGA	0.328
CCGCAAGG	0.0699
CTAACGCA	-0.0349
GAGTCCAC	-0.0806
ACTCGAAT	-0.187

Sequence	PBM E-score
CGTAGCGA	0.127
AGATTATA	-0.0715
AAACACGA	-0.0368
ATTCTCCG	0.332
CACACGAG	-0.276
ATTTTGTA	0.0382
TCAGCGAA	-0.244
CAGCTTCA	-0.167
CAGGTAAC	-0.207
CGTATCTA	0.0613
ACAGAAAC	-0.057
CCCTCAAC	-0.133
CGATATCG	0.195
AGATGAGG	-0.175
AGGAGTGC	-0.0635
GAAACCTC	-0.0299
AAGAAAGA	-0.0237
CTAGAAAC	-0.227
GGTGCCGA	0.281
ACGGTCGG	0.123
TGATCGCA	-0.289
ATCTGACA	-0.306
AGCTCTCG	-0.0644
CCATGTAG	0.0164
AATGCCCT	-0.102

Sequence	PBM E-score
ATAGCTTC	-0.113
GATACTAC	0.0582
CTCGGGTC	0.279
AGGAGGCC	-0.236
GAATATAA	0.0103
CGGTAATA	0.275
CCTCTCCG	0.141
AGTGACAA	-0.147
AGTAGGCA	-0.0146
ACGACTCG	-0.137
TCACGACA	-0.0577
TTACGAAA	-0.0461
AACTATTG	-0.0889
AAGCCATT	-0.115
AGTAACCC	0.0458
CCCAAAGC	-0.164
CGAGCACA	0.135
GAATGTAA	0.197
CGCGCTAA	0.205
AGCCTTTG	-0.281
AACGGAAT	0.468
ACAGCCGA	0.0243
ACGTAGCA	-0.122
AAGGTTAA	-0.189
CGACGACC	0.164

Sequence	PBM E-score
CGCCTTCC	0.109
ATTCCAAC	-0.117
GCCCGGCC	0.272
AAACATTC	-0.162
GGCGGATA	0.287
AGATTAGG	-0.135
CGTGCGTA	-0.0334
GCCAACCA	-0.0867
AGCCGGAA	0.438
CATTAGCA	-0.203
TGACCTAA	-0.061
AGGTGACT	-0.168
CTTTCCGC	0.384
CCACATTC	0.0586
GCAGATCC	0.107
AGGGGGCC	-0.238
CTAAGATC	-0.0406
CCCAATAG	-0.244
AGCGTTTC	-0.151
GGTAGGTA	-0.088
GCGTCCGA	0.153
ATCCTGTG	-0.185
GATAGACA	-0.162
CCAGTCGG	0.144
ATGGGCGG	0.244

Sequence	PBM E-score
AATAATTA	0.11
AAGTATGG	-0.0779
ATTAGTAC	-0.0759
CAGCCCCC	-0.248
CTGGGAGA	0.00461
AGCTGGGG	-0.0684
GTACCGAA	-0.0418
ACGAATTC	0.0596
CGCACCAA	0.0849
GGGATCGA	0.0956
ACCGTACC	0.0374
GTCCATCA	-0.105
GTAAGGCA	-0.235
AGGTCCCG	0.322
CACGGCTG	0.113
CCCCCGGC	0.037
ATATGGAG	0.0651
GATCCCGA	0.317
ATGCAGAG	-0.104
ATGGCGAA	0.16
GACAACTC	0.139
ACCCCCTC	-0.296
